This note sets out measurements from the supplement of paper PMC4604168 (melanoma cell lines).

This is one part of the list. Repeats are few or missing, and single values can be far off.
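Further: cell number obtained by counting DAPI-stained nuclei in high-throughput microscope images with image analysis software, screen run in 1,536-well plates.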

The assay deals with COLO829. Put plainly: cell count relative to DMSO control; melanoma cells; higher = more viable cells. The following applies: library dose: low library concentration; 72 h.
The compound `CCN(CC)CCNC(=O)c1c(C)[nH]c(/C=C2\C(=O)Nc3ccc(F)cc32)c1C` [sunitinib] + Clc1ccc(Nc2nnc(Cc3ccncc3)c3ccccc23)cc1 [vatalanib] (first compound 0.4 µM, partner dose 2 µM) gave a cell count of 92%.

The compound `COc1cc([C@@H]2c3cc4c(cc3[C@@H](O[C@@H]3O[C@@H]5CO[C@@H](C)O[C@H]5[C@H](O)[C@H]3O)[C@H]3COC(=O)[C@H]23)OCO4)cc(OC)c1O` [etoposide] + Cn1c(Nc2ccc(C(F)(F)F)cc2)nc2cc(Oc3ccnc(-c4ncc(C(F)(F)F)[nH]4)c3)ccc21 [CHIR265] (first compound 0.02 µM, partner dose 0.08 µM) yielded a cell count of 85.3%.

Turning to `CCN(CC)CCNC(=O)c1c(C)[nH]c(/C=C2\C(=O)Nc3ccc(F)cc32)c1C` [sunitinib] + O=C(O)[C@@H]1[O][Sb](=[O])([O][Sb]2(=[O])[O][C@H]([C@H](O)CO)[C@H](O)[C@H](C(=O)O)[O]2)[O][C@H]([C@H](O)CO)[C@@H]1O [stibogluconate] (first compound 0.4 µM, partner dose 2 µM), the cell count turned out to be 120%.

`COc1cc([C@@H]2c3cc4c(cc3[C@@H](O[C@@H]3O[C@@H]5CO[C@@H](C)O[C@H]5[C@H](O)[C@H]3O)[C@H]3COC(=O)[C@H]23)OCO4)cc(OC)c1O` [etoposide] + Cc1nc(Nc2ncc(C(=O)Nc3c(C)cccc3Cl)s2)cc(N2CCN(CCO)CC2)n1 [dasatanib] (first compound 0.02 µM, partner dose 0.004 µM) registered a cell count of 71.1%.

In turn, `COc1cc([C@@H]2c3cc4c(cc3[C@@H](O[C@@H]3O[C@@H]5CO[C@@H](C)O[C@H]5[C@H](O)[C@H]3O)[C@H]3COC(=O)[C@H]23)OCO4)cc(OC)c1O` [etoposide] + O=c1[nH]nc(Sc2ncc([N+](=O)[O-])s2)n1-c1ccc2c(c1)OCCO2 [BI78D3] (first compound 0.02 µM, partner dose 0.2 µM) yielded a cell count of 93.9%.

With `Cn1cnc2c(F)c(Nc3ccc(Br)cc3Cl)c(C(=O)NOCCO)cc21` [selumetinib] + Nc1nc(F)nc2c1ncn2[C@@H]1O[C@H](CO)[C@@H](O)[C@@H]1O [fludarabine] (first compound 0.015 µM, partner dose 0.2 µM), the cell count turned out to be 101%.

Regarding `Cn1cnc2c(F)c(Nc3ccc(Br)cc3Cl)c(C(=O)NOCCO)cc21` [selumetinib] + Clc1ccc(Nc2nnc(Cc3ccncc3)c3ccccc23)cc1 [vatalanib] (first compound 0.015 µM, partner dose 2 µM), the cell count is 102%.

Consider `CCN(CC)CCNC(=O)c1c(C)[nH]c(/C=C2\C(=O)Nc3ccc(F)cc32)c1C` [sunitinib] + O=C(O)c1ccc2c(c1)nc(Nc1cccc(Cl)c1)c1ccncc12 [CX4945] (first compound 0.4 µM, partner dose 0.4 µM), for which the cell count was 112%.

Compound `C[C@]1(O)C[C@@H](c2nc(-c3ccc4ccc(-c5ccccc5)nc4c3)c3c(N)nccn32)C1` + NC1(c2ccc(-c3nc4ccn5c(=O)[nH]nc5c4cc3-c3ccccc3)cc2)CCC1 [MK2206] (first compound 0.4 µM, partner dose 0.4 µM) had a cell count of 120%.

`C[C@]1(O)C[C@@H](c2nc(-c3ccc4ccc(-c5ccccc5)nc4c3)c3c(N)nccn32)C1` + CCCS(=O)(=O)Nc1ccc(F)c(C(=O)c2c[nH]c3ncc(Cl)cc23)c1F [PLX4720] (first compound 0.4 µM, partner dose 0.08 µM) gave a cell count of 131%.

For `C[C@]1(O)C[C@@H](c2nc(-c3ccc4ccc(-c5ccccc5)nc4c3)c3c(N)nccn32)C1` + C[C@]1(c2nc3c(C(N)=O)cccc3[nH]2)CCCN1 [Veliparib] (first compound 0.4 µM, partner dose 1.4 µM), the cell count was found to be 108%.

As to `COc1cc([C@@H]2c3cc4c(cc3[C@@H](O[C@@H]3O[C@@H]5CO[C@@H](C)O[C@H]5[C@H](O)[C@H]3O)[C@H]3COC(=O)[C@H]23)OCO4)cc(OC)c1O` [etoposide] + CN(c1ncccc1CNc1nc(Nc2ccc3c(c2)CC(=O)N3)ncc1C(F)(F)F)S(C)(=O)=O [PF562271] (first compound 0.02 µM, partner dose 0.08 µM), the cell count turned out to be 87.1%.

`C[C@]1(O)C[C@@H](c2nc(-c3ccc4ccc(-c5ccccc5)nc4c3)c3c(N)nccn32)C1` + Clc1ccc(Nc2nnc(Cc3ccncc3)c3ccccc23)cc1 [vatalanib] (first compound 0.4 µM, partner dose 2 µM) showed a cell count of 115%.

As for `COc1cc([C@@H]2c3cc4c(cc3[C@@H](O[C@@H]3O[C@@H]5CO[C@@H](C)O[C@H]5[C@H](O)[C@H]3O)[C@H]3COC(=O)[C@H]23)OCO4)cc(OC)c1O` [etoposide] + O=C(O)[C@@H]1[O][Sb](=[O])([O][Sb]2(=[O])[O][C@H]([C@H](O)CO)[C@H](O)[C@H](C(=O)O)[O]2)[O][C@H]([C@H](O)CO)[C@@H]1O [stibogluconate] (first compound 0.02 µM, partner dose 2 µM), the cell count is 93.7%.

`CCN(CC)CCNC(=O)c1c(C)[nH]c(/C=C2\C(=O)Nc3ccc(F)cc32)c1C` [sunitinib] + Cn1c(Nc2ccc(C(F)(F)F)cc2)nc2cc(Oc3ccnc(-c4ncc(C(F)(F)F)[nH]4)c3)ccc21 [CHIR265] (first compound 0.4 µM, partner dose 0.08 µM): the cell count is 98.6%.

Turning to `CCN(CC)CCNC(=O)c1c(C)[nH]c(/C=C2\C(=O)Nc3ccc(F)cc32)c1C` [sunitinib] + CNC(=O)c1cc(Oc2ccc(NC(=O)Nc3ccc(Cl)c(C(F)(F)F)c3)cc2)ccn1 [sorafenib] (first compound 0.4 µM, partner dose 0.4 µM), the cell count stood at 137%.

The compound `C[C@]1(O)C[C@@H](c2nc(-c3ccc4ccc(-c5ccccc5)nc4c3)c3c(N)nccn32)C1` + C=C(c1ccc(C(=O)O)cc1)c1cc2c(cc1C)C(C)(C)CCC2(C)C [Bexarotene] (first compound 0.4 µM, partner dose 2 µM) yielded a cell count of 113%.

`CCN(CC)CCNC(=O)c1c(C)[nH]c(/C=C2\C(=O)Nc3ccc(F)cc32)c1C` [sunitinib] + CN(c1ncccc1CNc1nc(Nc2ccc3c(c2)CC(=O)N3)ncc1C(F)(F)F)S(C)(=O)=O [PF562271] (first compound 0.4 µM, partner dose 0.08 µM) yielded a cell count of 97.7%.

Regarding `CCN(CC)CCNC(=O)c1c(C)[nH]c(/C=C2\C(=O)Nc3ccc(F)cc32)c1C` [sunitinib] + NC1(c2ccc(-c3nc4ccn5c(=O)[nH]nc5c4cc3-c3ccccc3)cc2)CCC1 [MK2206] (first compound 0.4 µM, partner dose 0.4 µM), the cell count was 101%.

Turning to `Cn1cnc2c(F)c(Nc3ccc(Br)cc3Cl)c(C(=O)NOCCO)cc21` [selumetinib] + CNC(=O)c1cc(Oc2ccc(NC(=O)Nc3ccc(Cl)c(C(F)(F)F)c3)cc2)ccn1 [sorafenib] (first compound 0.015 µM, partner dose 0.4 µM), the cell count turned out to be 122%.

For the compound `Cn1cnc2c(F)c(Nc3ccc(Br)cc3Cl)c(C(=O)NOCCO)cc21` [selumetinib] + Cc1cc(Nc2cc(N3CCN(C)CC3)nc(/C=C/c3ccccc3)n2)n[nH]1 [ENMD2076] (first compound 0.015 µM, partner dose 0.04 µM), the cell count is 123%.

As for `COc1cc([C@@H]2c3cc4c(cc3[C@@H](O[C@@H]3O[C@@H]5CO[C@@H](C)O[C@H]5[C@H](O)[C@H]3O)[C@H]3COC(=O)[C@H]23)OCO4)cc(OC)c1O` [etoposide] + Nc1nc(F)nc2c1ncn2[C@@H]1O[C@H](CO)[C@@H](O)[C@@H]1O [fludarabine] (first compound 0.02 µM, partner dose 0.2 µM), the cell count stood at 85.2%.

In turn, `COc1cc([C@@H]2c3cc4c(cc3[C@@H](O[C@@H]3O[C@@H]5CO[C@@H](C)O[C@H]5[C@H](O)[C@H]3O)[C@H]3COC(=O)[C@H]23)OCO4)cc(OC)c1O` [etoposide] + Cn1sc(=O)n(Cc2ccccc2)c1=O [TDZD-8] (first compound 0.02 µM, partner dose 0.4 µM) showed a cell count of 91.8%.

Take `Cn1cnc2c(F)c(Nc3ccc(Br)cc3Cl)c(C(=O)NOCCO)cc21` [selumetinib] + CO[C@H]1C[C@@H]2CC[C@@H](C)[C@@](O)(O2)C(=O)C(=O)N2CCCC[C@H]2C(=O)O[C@H]([C@H](C)C[C@@H]2CC[C@@H](OCCO)[C@H](OC)C2)CC(=O)[C@H](C)/C=C(\C)[C@@H](O)[C@@H](OC)C(=O)[C@H](C)C[C@H](C)/C=C/C=C/C=C/1C [everolimus] (first compound 0.015 µM, partner dose 0.02 µM): the cell count is 93.3%.

As to `Cn1cnc2c(F)c(Nc3ccc(Br)cc3Cl)c(C(=O)NOCCO)cc21` [selumetinib] + COc1ccc(C2=N[C@@H](c3ccc(Cl)cc3)[C@@H](c3ccc(Cl)cc3)N2C(=O)N2CCNC(=O)C2)c(OC(C)C)c1 [Nutlin-3] (first compound 0.015 µM, partner dose 0.1 µM), the cell count was 145%.

In turn, `C[C@]1(O)C[C@@H](c2nc(-c3ccc4ccc(-c5ccccc5)nc4c3)c3c(N)nccn32)C1` + CN(c1ncccc1CNc1nc(Nc2ccc3c(c2)CC(=O)N3)ncc1C(F)(F)F)S(C)(=O)=O [PF562271] (first compound 0.4 µM, partner dose 0.08 µM) had a cell count of 63%.
